In a compilation of properties of binary mixtures (doi:10.1016/j.molliq.2021.118292):
The densities may have been worked out from excess volumes.

Assay: xn = mol fraction of the nth substance listed
Conditions: 298.15 K, 101 kPa

CC(C)=O + CC(=O)[O-].CCCC[n+]1ccn(C)c1
Conditions	mass density [kg/m3]
x1 = 1	784.8

CC(=O)[O-].CCCC[n+]1ccn(C)c1 + CC(C)=O
Conditions	mass density [kg/m3]
x2 = 0	1050.8
x2 = 0.2024	1031.8
x2 = 0.3155	1018.3
x2 = 0.49	989.9
x2 = 0.5915	968.5
x2 = 0.689	942.1
x2 = 0.8036	901
x2 = 0.8357	886.8

CC[n+]1ccn(C)c1.N#C[S-] + CC(C)=O
Conditions	mass density [kg/m3]
x2 = 0	1115.1
x2 = 0.1125	1102
x2 = 0.1889	1089.9
x2 = 0.3058	1072.2
x2 = 0.3917	1055.8
x2 = 0.5127	1028
x2 = 0.6	1003.1
x2 = 0.6892	972.5
x2 = 0.7842	930.7
x2 = 0.9008	864.2

CC(C)=O + CC[n+]1ccn(C)c1.N#C[S-]
Conditions	mass density [kg/m3]
x1 = 1	784.8

CC(=O)[O-].CC[n+]1ccn(C)c1 + O
Conditions	mass density [kg/m3]
x2 = 0	1099
x2 = 0.1306	1100.6
x2 = 0.2326	1101.8
x2 = 0.2865	1103.6
x2 = 0.3671	1104.9
x2 = 0.4047	1105.5
x2 = 0.4896	1106.8
x2 = 0.5258	1107.2
x2 = 0.5507	1107.6
x2 = 0.7151	1105.7
x2 = 0.7317	1105.5
x2 = 0.8099	1098.6
x2 = 0.9053	1071.8
